# Source: the supplement of paper PMC8728848
# This is one part of the list.
# B1: Cohesin-hDCIR (Homo sapiens) (protein)
# chain: LDDLDAVRIKVDTVNAKPGDTVRIPVRFSGIPSKGIANCDFVYSYDPNVLEIIEIEPGDIIVDPNPDKSFDTAVYPDRKIIVFLFAEDSGTGAYAITKDGVFATIVAKVKEGAPNGLSVIKFVEVGGFANNDLVEQKTQFFDGGANVGDTTEPATPTTPVTTPTTTDDLDAASQKYSQLLEKKTTKELVHTTLECVKKNMPVEETAWSCCPKNWKSFSSNCYFISTESASWQDSEKDCARMEAHLLVINTQEEQDFIFQNLQEESAYFVGLSDPEGQRHWQWVDQTPYNESSTFWHPREPSDPNERCVVLNFRKSPKRWGWNDVNCLGPQRSVCEMMKIHLHHHHHH
# Columns and labels:
# Assay in all cases: glycan array binding signal (z-score within array); higher = stronger binding
# Conditions in all cases: glycan notation: IUPAC condensed, linker removed
# [1] = molecular target: Gal(b1-3)[Fuc(a1-4)]GlcNAc(b1-6)GalNAc
# How it was run: (§1)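 Arrays were curated from the Consortium for Functional Glycomics database, 3228 in total, and kept only where the protein sequence was available. Binding is expressed as a within-array Z-score. This score was averaged across arrays of the same protein sequence at different concentrations or buffers and across linkers, and negative values can be read as non-binding.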
# [2] = molecular target: Gal(b1-3)[GlcNAc(b1-6)]GalNAc
# How it was run: as §1
# [3] = molecular target: Gal(b1-3)[Neu5Ac(a2-6)]GalNAc
# How it was run: as §1
# [4] = molecular target: Gal(b1-3)[Neu5Ac(a2-6)]GlcNAc(b1-4)Gal(b1-4)Glc
# How it was run: as §1
# [5] = molecular target: Gal(b1-3)[Neu5Ac(b2-6)]GalNAc
# How it was run: as §1
# Gal(b1-4)Gal = molecular target: Gal(b1-4)Gal
# How it was run: as §1
# [6] = molecular target: Gal(b1-4)GalNAc(a1-3)[Fuc(a1-2)]Gal(b1-4)GlcNAc
# How it was run: as §1
# [7] = molecular target: Gal(b1-4)GalNAc(b1-3)[Fuc(a1-2)]Gal(b1-4)GlcNAc
# How it was run: as §1
# Gal(b1-4)Glc = molecular target: Gal(b1-4)Glc
# How it was run: as §1
# Gal(b1-4)Glc6S = molecular target: Gal(b1-4)Glc6S
# How it was run: as §1
# Gal(b1-4)GlcNAc = molecular target: Gal(b1-4)GlcNAc
# How it was run: as §1
# [8] = molecular target: Gal(b1-4)GlcNAc(a1-6)Gal(b1-4)GlcNAc
# How it was run: as §1
# Gal(b1-4)GlcNAc(b1-2)Man = molecular target: Gal(b1-4)GlcNAc(b1-2)Man
# How it was run: as §1
# [9] = molecular target: Gal(b1-4)GlcNAc(b1-2)Man(a1-3)Man(b1-4)GlcNAc(b1-4)GlcNAc
# How it was run: as §1
# [10] = molecular target: Gal(b1-4)GlcNAc(b1-2)Man(a1-3)[Gal(b1-4)GlcNAc(b1-2)Man(a1-6)]Man(b1-4)GlcNAc(b1-4)GlcNAc
# How it was run: as §1
# [11] = molecular target: Gal(b1-4)GlcNAc(b1-2)Man(a1-3)[Gal(b1-4)GlcNAc(b1-2)Man(a1-6)]Man(b1-4)GlcNAc(b1-4)[Fuc(a1-6)]GlcNAc
# How it was run: as §1
# [12] = molecular target: Gal(b1-4)GlcNAc(b1-2)Man(a1-3)[Gal(b1-4)GlcNAc(b1-2)Man(a1-6)][Gal(b1-4)GlcNAc(b1-4)]Man(b1-4)GlcNAc(b1-4)[Fuc(a1-6)]GlcNAc
# How it was run: as §1
# [13] = molecular target: Gal(b1-4)GlcNAc(b1-2)Man(a1-3)[Gal(b1-4)GlcNAc(b1-2)Man(a1-6)][GlcNAc(b1-4)]Man(b1-4)GlcNAc(b1-4)[Fuc(a1-6)]GlcNAc
# How it was run: as §1
# [14] = molecular target: Gal(b1-4)GlcNAc(b1-2)Man(a1-3)[GlcNAc(b1-2)Man(a1-6)]Man(b1-4)GlcNAc(b1-4)GlcNAc
# How it was run: as §1
# [15] = molecular target: Gal(b1-4)GlcNAc(b1-2)Man(a1-3)[GlcNAc(b1-4)][Gal(b1-4)GlcNAc(b1-2)Man(a1-6)]Man(b1-4)GlcNAc(b1-4)GlcNAc
# How it was run: as §1
# [16] = molecular target: Gal(b1-4)GlcNAc(b1-2)Man(a1-3)[Man(a1-6)]Man(b1-4)GlcNAc(b1-4)GlcNAc
# How it was run: as §1
# [17] = molecular target: Gal(b1-4)GlcNAc(b1-2)Man(a1-6)Man(b1-4)GlcNAc(b1-4)GlcNAc
# How it was run: as §1
# [18] = molecular target: Gal(b1-4)GlcNAc(b1-2)Man(a1-6)[GlcNAc(b1-2)Man(a1-3)]Man(b1-4)GlcNAc(b1-4)GlcNAc
# How it was run: as §1
# [19] = molecular target: Gal(b1-4)GlcNAc(b1-2)Man(a1-6)[Man(a1-3)]Man(b1-4)GlcNAc(b1-4)GlcNAc
# How it was run: as §1
# [20] = molecular target: Gal(b1-4)GlcNAc(b1-2)[Gal(b1-4)GlcNAc(b1-4)]Man(a1-3)[Gal(b1-4)GlcNAc(b1-2)Man(a1-6)]Man(b1-4)GlcNAc(b1-4)GlcNAc
# How it was run: as §1
# [21] = molecular target: Gal(b1-4)GlcNAc(b1-2)[Gal(b1-4)GlcNAc(b1-4)]Man(a1-3)[Gal(b1-4)GlcNAc(b1-2)[Gal(b1-4)GlcNAc(b1-6)]Man(a1-6)]Man(b1-4)GlcNAc(b1-4)GlcNAc
# How it was run: as §1
# [22] = molecular target: Gal(b1-4)GlcNAc(b1-2)[Gal(b1-4)GlcNAc(b1-4)]Man(a1-3)[GlcNAc(b1-4)][Gal(b1-4)GlcNAc(b1-2)Man(a1-6)]Man(b1-4)GlcNAc(b1-4)GlcNAc
# How it was run: as §1
# [23] = molecular target: Gal(b1-4)GlcNAc(b1-2)[Gal(b1-4)GlcNAc(b1-4)]Man(a1-3)[GlcNAc(b1-4)][Gal(b1-4)GlcNAc(b1-2)[Gal(b1-4)GlcNAc(b1-6)]Man(a1-6)]Man(b1-4)GlcNAc(b1-4)GlcNAc
# How it was run: as §1
# [24] = molecular target: Gal(b1-4)GlcNAc(b1-2)[Gal(b1-4)GlcNAc(b1-6)]Man(a1-6)[Gal(b1-4)GlcNAc(b1-2)Man(a1-3)]Man(b1-4)GlcNAc(b1-4)GlcNAc
# How it was run: as §1
# [25] = molecular target: Gal(b1-4)GlcNAc(b1-2)[Gal(b1-4)GlcNAc(b1-6)]Man(a1-6)[Gal(b1-4)GlcNAc(b1-2)Man(a1-3)]Man(b1-4)GlcNAc(b1-4)[Fuc(a1-6)]GlcNAc
# How it was run: as §1
# [26] = molecular target: Gal(b1-4)GlcNAc(b1-2)[Gal(b1-4)GlcNAc(b1-6)]Man(a1-6)[GlcNAc(b1-4)][Gal(b1-4)GlcNAc(b1-2)Man(a1-3)]Man(b1-4)GlcNAc(b1-4)GlcNAc
# How it was run: as §1
# [27] = molecular target: Gal(b1-4)GlcNAc(b1-2)[Gal(b1-4)GlcNAc(b1-6)]Man(a1-6)[GlcNAc(b1-4)][Gal(b1-4)GlcNAc(b1-2)[Gal(b1-4)GlcNAc(b1-4)]Man(a1-3)]Man(b1-4)GlcNAc(b1-4)[Fuc(a1-6)]GlcNAc
# How it was run: as §1
# [28] = molecular target: Gal(b1-4)GlcNAc(b1-3)Gal(b1-3)GalNAc
# How it was run: as §1
# [29] = molecular target: Gal(b1-4)GlcNAc(b1-3)Gal(b1-3)GlcNAc
# How it was run: as §1
# [30] = molecular target: Gal(b1-4)GlcNAc(b1-3)Gal(b1-4)Glc
# How it was run: as §1
# [31] = molecular target: Gal(b1-4)GlcNAc(b1-3)Gal(b1-4)GlcNAc
# How it was run: as §1
# [32] = molecular target: Gal(b1-4)GlcNAc(b1-3)Gal(b1-4)GlcNAc(b1-2)Man(a1-3)[Gal(b1-4)GlcNAc(b1-3)Gal(b1-4)GlcNAc(b1-2)Man(a1-6)]Man(b1-4)GlcNAc(b1-4)GlcNAc
# How it was run: as §1
# [33] = molecular target: Gal(b1-4)GlcNAc(b1-3)Gal(b1-4)GlcNAc(b1-2)Man(a1-3)[Gal(b1-4)GlcNAc(b1-3)Gal(b1-4)GlcNAc(b1-2)Man(a1-6)]Man(b1-4)GlcNAc(b1-4)[Fuc(a1-6)]GlcNAc
# How it was run: as §1
binder,measurement,setting,value
B1,glycan array binding signal (z-score),[1],-0.439
same,glycan array binding signal (z-score),[2],-0.299
same,glycan array binding signal (z-score),[3],-0.529
same,glycan array binding signal (z-score),[4],-0.579
same,glycan array binding signal (z-score),[5],-0.678
same,glycan array binding signal (z-score),Gal(b1-4)Gal,-0.389
same,glycan array binding signal (z-score),[6],-0.416
same,glycan array binding signal (z-score),[7],-0.582
same,glycan array binding signal (z-score),Gal(b1-4)Glc,-0.446
same,glycan array binding signal (z-score),Gal(b1-4)Glc6S,-0.325
same,glycan array binding signal (z-score),Gal(b1-4)GlcNAc,-0.193
same,glycan array binding signal (z-score),[8],0.036
same,glycan array binding signal (z-score),Gal(b1-4)GlcNAc(b1-2)Man,-0.192
same,glycan array binding signal (z-score),[9],0.28
same,glycan array binding signal (z-score),[10],0.859
same,glycan array binding signal (z-score),[11],-0.335
same,glycan array binding signal (z-score),[12],-0.533
same,glycan array binding signal (z-score),[13],-0.671
same,glycan array binding signal (z-score),[14],0.292
same,glycan array binding signal (z-score),[15],-0.594
same,glycan array binding signal (z-score),[16],-0.403
same,glycan array binding signal (z-score),[17],-0.401
same,glycan array binding signal (z-score),[18],-0.029
same,glycan array binding signal (z-score),[19],-0.693
same,glycan array binding signal (z-score),[20],-0.693
same,glycan array binding signal (z-score),[21],-0.587
same,glycan array binding signal (z-score),[22],-0.569
same,glycan array binding signal (z-score),[23],-0.57
same,glycan array binding signal (z-score),[24],-0.352
same,glycan array binding signal (z-score),[25],0.059
same,glycan array binding signal (z-score),[26],-0.419
same,glycan array binding signal (z-score),[27],-0.655
same,glycan array binding signal (z-score),[28],-0.458
same,glycan array binding signal (z-score),[29],-0.676
same,glycan array binding signal (z-score),[30],-0.399
same,glycan array binding signal (z-score),[31],-0.307
same,glycan array binding signal (z-score),[32],2.05
same,glycan array binding signal (z-score),[33],1.82
